This note sets out measurements from the RNAGym collection of RNA variant scans (doi:10.7554/elife.90254).

B1: LINE1-mini (parent)
chain: GGCAGAGCUCAACACAGCGUGGCAAAGUGGCUGUGGCUAGACUGCC

Read counts are not given, so values of variants with three or more changes are uncertain.

Variants of B1 are the subject of this data set. The data set is described as follows: self-cleavage, relative activity (ratio to wild type); higher = more cleavage; in vitro, sequencing; the parent is a self-cleaving ribozyme.
Take C15A U28G U34C C46A: the self-cleavage was 0.06.

As to G2U A6U G36A, the self-cleavage is 0.21. Turning to G5A A6G G7U C23A U28A C31A U34A, the self-cleavage is 0.17. On to A6G A14U A26C G30C, for which the self-cleavage is 0.14. For the variant A16U G21U A25C G27U, the self-cleavage is 0.44. As to C3G G19U A26C U32A U34G, the self-cleavage was 0.08. Turning to C8G G27U C46G, the self-cleavage came to 0.04. To G7A A11C G27A U28C belongs 0.02. Turning to C31U G35U G44C C45A, the self-cleavage is 0.01. The value for G21U C23A U34C was 0.11; that for C15A U28C G33U A39G was 0.08.

G5C G21U A41G: the self-cleavage amounted to 0.04. Turning to G1C C3G C8G C13A G22U, the self-cleavage came to 0.03. To G1C G2U C3A G29A belongs 0.07; to C31U U38A A41U U43A G44C, 0.01; to C3U A24C G33A, 0.14. C8G G40A C46G: the self-cleavage was 0.04. As for A6C A14C G17A A26G C45A, the self-cleavage amounted to 0. On to G7A A16G C37G A41C, for which the self-cleavage was 0.02. G7A G17U U28G G30A G36U: the self-cleavage amounted to 0.03. On to C10A C23G G27C C42U, for which the self-cleavage came out at 0.05. In the case of C18U G22U C31G G35A C37G, the self-cleavage was 0.01. Turning to A14U G19U A39G, the self-cleavage is 0.08.

As to C31G U32G G36U, the self-cleavage is 0.05. To G1C A12G C13G G29U belongs 0.01. The value for C3U A11U C15U G17U G27A G29C C42A was 0.03; that for A4U G27A G44U was 0.12; that for C10A C15U G44U was 0.01. To C15A G21U G29A G44C belongs 0.04; to G22U A25C A26G G30A, 0.66.

Turning to A39C G40C C46A, the self-cleavage was 0.07. G1C A6G C15A G17A A25G G33A: the self-cleavage turned out to be 0.01. In the case of A6G G17A U38C, the self-cleavage was found to be 0.05. On to C8G A16G G17A G33A, for which the self-cleavage came to 0.02.

With A25C C37G G44C, the self-cleavage is 0.03. With G2U G27U U34A C37G G40C, the self-cleavage was 0.03.

Regarding C23A C31A C37A C42A, the self-cleavage stood at 0.16. To G5A G21U U38A belongs 0; to C13U G17C G35C C45G, 0.01; to G2U C3U C13U, 0.09. For G1C C10A C18A C45U, the self-cleavage was found to be 0.02. On to G5A G21U G30U C31A, for which the self-cleavage stood at 0.03. The value for C13A C15A A26U was 0.05. In the case of G21U C23U G27U A41U, the self-cleavage is 1.07.

Regarding C3U G7C G19A G29C G44U, the self-cleavage amounted to 0.08.

On to C3A G5U A6C C15U A25G G27C A39U, for which the self-cleavage stood at 0.17. For the variant C8U C10A G35C, the self-cleavage is 0.03. Consider C3G U9A A16U G33U, for which the self-cleavage was 0.05. Turning to A12U C15A C18A G30U U38C C45A, the self-cleavage came out at 0.04. To G5A C13G C31A G33U belongs 0.02; to C3U G7A G27U U34A, 0.71. G5U U43G G44C C46A: the self-cleavage stood at 0.

Take G1U C23U A39C C42U G44C: the self-cleavage was found to be 0. With A39G G40A G44C C46U, the self-cleavage was determined as 0.01. In the case of A11U C23U A24C G29U, the self-cleavage amounted to 0.02. The value for U9C G21C U28G was 0.01; that for G1C G2A C13U C31G was 0.03; that for C23A A24U U28A U32A C45U was 0.09. To C13U G21U G30A A41G belongs 0.31. The value for C3A U34G C37G was 0.06; that for U9C A16C G21A G27A G29U U43A was 0.01. Consider G1C C3A G21C G22C C37A A39G, for which the self-cleavage came to 0.02. For the variant U9A U34A G36A, the self-cleavage was found to be 0.08. C18G G19A G21A G35U: the self-cleavage was 0.01.

In the case of A16U G36U U43A, the self-cleavage was 0.02. To C3G G27U U34C G35C A39C belongs 0.02; to G1U C8G C10U A25U G30C, 0.03; to U9A G17A A26U, 0.02. The value for A4U C15A A26U C37A was 0.02; that for G2U A4G G19U A26G G33U was 0.03; that for A16C C23U G33C was 0.04.

For G7U C23A G27U, the self-cleavage came to 0.05. Take C10U G22U A25U: the self-cleavage was 0.4. Turning to A12C C18A G19A A24U A41C, the self-cleavage worked out at 0. The value for C10G A12U C15U U32A was 0.01. A4C C23U G29A: the self-cleavage came out at 0.15. For G17A C18A G22A G30U, the self-cleavage came out at 0.05.

As to A12G G21A G30C, the self-cleavage was 0.03. Regarding A25U C31U G35U, the self-cleavage worked out at 0.18. As for A14G C31U C37U C45G, the self-cleavage is 0.11. As for U9G C23A G33C C37A, the self-cleavage came to 0.03. On to A6G C10A U34A C42A, for which the self-cleavage was 0.01. For A14C C15G G36C C42U, the self-cleavage came to 0. The value for A14G G35A A39U was 0.02; that for C18A G21A G30U C37U C46U was 0.07; that for G2U C13U G30A A39G was 0.01. With A6U C10U C18U G29C A39G, the self-cleavage turned out to be 0.03. C3U C15U G17A A41C: the self-cleavage is 0.07. For the variant A4C G40A C42U C45U, the self-cleavage amounted to 0.01. The value for A14G C37G U43C was 0.01; that for G2A G17U G21C A25C C45A was 0.23; that for G1C A12C G33C C45U was 0. Take C3G A24G C31G G33C: the self-cleavage was 0.08. Take A14C U34A G36U: the self-cleavage stood at 0.03. Take G2C C8A A11C G33U C46U: the self-cleavage amounted to 0.01. Regarding U20G G21A A41G, the self-cleavage came out at 0.03. Take A12G C13A U20A: the self-cleavage turned out to be 0.01. For the variant G1C A4C A26U G27A U34A, the self-cleavage was 0.04.

As for G30A U32A G44A C46U, the self-cleavage was 0.04. On to G21A C31U G33A, for which the self-cleavage was determined as 0.14. With C3A A4C G5U A12C A25U U28C G33U, the self-cleavage worked out at 0.06. As for A4G C15G G27U C42U, the self-cleavage was found to be 0.02. As to G19C G29C G35U, the self-cleavage was found to be 0.08. For A24U A25G A26G U38G, the self-cleavage amounted to 0.02. Consider U9A G21U A26U, for which the self-cleavage is 0.75. Take C10U U20C C37A A41C C45U: the self-cleavage turned out to be 0.01. Take C3A C42G C46G: the self-cleavage was 0.03. As to G7A A26C C31A G33U U34A G36C C42A, the self-cleavage amounted to 0.15. To G2U A11C C23A U38G belongs 0; to G7A G36A C37G, 0.02; to G7A A14U U32C, 0.32.

Turning to C8G C18G G29U C45A, the self-cleavage is 0.01. The value for G21U U34C G40A was 0.04.

As for G17A G22C C23G, the self-cleavage is 0.81. Take G2U G5C A6G G17U: the self-cleavage worked out at 0.06.

For the variant G2U G17A C23A C46U, the self-cleavage turned out to be 0.05. For C3A A4U G30C, the self-cleavage was 0.2. For C13G A14C G35U, the self-cleavage came out at 0. As to G1C U9A G19C A24U G29U G40C C45A, the self-cleavage was 0.04.

Consider A16C G30U G44U, for which the self-cleavage came out at 0.03. To G1C C3A G17A belongs 0.09; to A24U G36A G40A C42G, 0.07. Regarding C3A A16U C18A, the self-cleavage stood at 0.15. Turning to G7C U9C C10A, the self-cleavage is 0.03. The value for A6C G30A C37G was 0.03; that for A4C C31A U34C U43A was 0.03. As for C13U C18A C31G G40U U43G C45A, the self-cleavage is 0.03. Turning to U9C U20C A25U G40A, the self-cleavage stood at 0. Regarding A4G A12C C13A G36U C45U, the self-cleavage turned out to be 0.03. In the case of G5U G30A G35A, the self-cleavage was 0.07. A14U C15G A24U: the self-cleavage was found to be 0.02. In the case of G2A C3U A26G G36C U43C, the self-cleavage came to 0.16. As to U9G C37G U38G, the self-cleavage was found to be 0. Consider U9C G21C C46A, for which the self-cleavage is 0.02. As for G19U G22A A26C U38G, the self-cleavage worked out at 0.03. In the case of G7U A11G G27A, the self-cleavage came out at 0.03.

In the case of A4C G7A C23U G27A, the self-cleavage was 0.13. With G5C C10U A11U U28G G29A, the self-cleavage worked out at 0.04. On to G7C A14U C15U C37A G44U, for which the self-cleavage turned out to be 0.24.

Regarding A4G G7U G21C G22U A24G, the self-cleavage was determined as 0.04.

Take A11G A24U C37A: the self-cleavage is 0.03. To A6G C8G C13A C15U C23G G27U U28G G36U C45A belongs 0.01; to G2A A14C G21A G33C, 0.

G7U A14C C15A C31A: the self-cleavage amounted to 0.12. The value for U32A A39U A41U was 0.02. Consider C3U A12C C37A, for which the self-cleavage was 0.03. The value for A12C A26C G27U U38A was 0.01. With C23G U28G G29U, the self-cleavage was 0.53. As for G17U C18A C45A, the self-cleavage worked out at 0. Regarding C3A C42A U43A C45A, the self-cleavage stood at 0.12. Turning to A12U G22A G29U, the self-cleavage was 0.31. As to G1U C31U A41G, the self-cleavage came to 0.01.

For C13A A16U G36A G44C, the self-cleavage amounted to 0.05. Consider A26G U28G G30A G36A C45G, for which the self-cleavage was 0.04. Turning to C3U C8U U20C G30A G44U, the self-cleavage is 0.15. C10G C18A C23A C45U: the self-cleavage was determined as 0.32. The value for G5A C18U C46U was 0.13; that for C8G U9G A25U was 0.02. The value for G35U C42U G44U C46U was 0; that for A4G A11G G33U was 0.07; that for G2C A11C C13A G30C was 0.09. For the variant A4G G27U G30U A39C, the self-cleavage came out at 0.02.

As for G21C G29A C46A, the self-cleavage amounted to 1.48. Turning to C37A A41C C45U, the self-cleavage stood at 0.01. The value for C18G A24G U32C G40A was 0.06. Take G1C C8A C10A C13A G27C G29A U43A: the self-cleavage amounted to 0. As for G5C C10A A24C A39C G44U, the self-cleavage was 0.01.
